# According to article PMC4336329 (PLoS ONE, 2015):
# The whole screen tested about 310,000 compounds, of which about 2,200 (0.71%) showed an effect of 50% or more. Effects have a minus sign here. The list shows a part of the results.
# Target: human ether-à-go-go-related gene (hERG) potassium channel (human, UniProt Q12809)
# Assay: primary screen, population patch clamp on CHO cells stably expressing hERG
# Chain of human ether-à-go-go-related gene (hERG) potassium channel (Q12809 whole entry, looked up): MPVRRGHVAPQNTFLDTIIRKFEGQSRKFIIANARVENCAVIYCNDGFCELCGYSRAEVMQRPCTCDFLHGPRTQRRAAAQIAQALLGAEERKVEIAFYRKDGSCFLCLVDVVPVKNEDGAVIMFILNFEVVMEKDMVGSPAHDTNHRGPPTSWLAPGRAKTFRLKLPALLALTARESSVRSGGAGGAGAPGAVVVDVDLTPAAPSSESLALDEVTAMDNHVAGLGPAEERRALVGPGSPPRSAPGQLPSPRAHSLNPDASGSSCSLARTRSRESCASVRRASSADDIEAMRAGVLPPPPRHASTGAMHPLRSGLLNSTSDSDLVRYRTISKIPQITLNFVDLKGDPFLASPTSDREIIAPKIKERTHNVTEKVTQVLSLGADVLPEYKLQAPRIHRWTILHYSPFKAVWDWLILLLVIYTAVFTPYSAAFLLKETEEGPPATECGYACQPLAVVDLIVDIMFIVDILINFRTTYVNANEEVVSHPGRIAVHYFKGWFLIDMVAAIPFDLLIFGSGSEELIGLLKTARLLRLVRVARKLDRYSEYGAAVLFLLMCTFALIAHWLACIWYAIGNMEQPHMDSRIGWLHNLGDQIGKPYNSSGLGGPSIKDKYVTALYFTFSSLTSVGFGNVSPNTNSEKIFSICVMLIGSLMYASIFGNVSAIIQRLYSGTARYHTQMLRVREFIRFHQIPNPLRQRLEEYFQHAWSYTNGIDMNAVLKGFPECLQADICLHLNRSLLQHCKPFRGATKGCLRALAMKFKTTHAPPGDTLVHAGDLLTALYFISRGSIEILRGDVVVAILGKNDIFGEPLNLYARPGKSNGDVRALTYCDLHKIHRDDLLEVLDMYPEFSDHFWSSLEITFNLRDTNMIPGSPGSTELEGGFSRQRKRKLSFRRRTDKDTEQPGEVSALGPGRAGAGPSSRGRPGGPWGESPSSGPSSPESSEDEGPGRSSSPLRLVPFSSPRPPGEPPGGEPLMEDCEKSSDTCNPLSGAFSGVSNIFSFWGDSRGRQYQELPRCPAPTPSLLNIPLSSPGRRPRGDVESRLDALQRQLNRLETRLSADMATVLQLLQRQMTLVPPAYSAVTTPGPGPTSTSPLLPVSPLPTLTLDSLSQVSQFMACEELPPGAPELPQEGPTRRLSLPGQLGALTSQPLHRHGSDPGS
row,SMILES,"hERG current change (%, negative = inhibition) at 1uM"
1,S=c1[nH]nc(COc2ccccc2)n1/N=C/c1cccc(Cl)c1Cl,7.78%
2,CCc1cc(=O)oc2c(C)c(OCC(=O)N3CCC(C(=O)O)CC3)ccc12,8.26%
3,CN(C)S(=O)(=O)N1CCC(Oc2cccc(C(=O)NC3CCOC3)c2)CC1 (stereo not drawn),9.88%
4,Cc1coc2cc3oc(=O)c(CCC(=O)O)c(C)c3cc12,8.92%
5,Cn1c(=O)[nH]c(NC2CCCCC2)c(N=O)c1=O,5.74%
6,COc1ccc(S(=O)(=O)N2CCC(C(=O)NCc3cccnc3)CC2)cc1Cl,8.07%
7,CCCCN(CC)CCNC(=O)c1cc2cc3ccc(Cl)cc3nc2o1,-12.4%
8,COc1cccc(NC(=O)COC(=O)c2ccccc2F)c1,12.2%
9,CCCCCCSc1ccc(-c2nc3ccc(C)cn3c2NCc2ccccc2)cc1OC.O=C(O)C(F)(F)F,8.2%
10,NC(N)=NC1=NC(=O)C(Cc2ccccc2Cl)S1 (stereo not drawn),25.7%
11,N/C(CS(=O)(=O)c1ccccn1)=N\OC(=O)c1ccccc1Cl,7.04%
12,CCCOC(=O)CC1C(=O)NCCN1C(=O)OC(C)(C)C (stereo not drawn),10.4%
13,O=C(CNC(=O)c1ccc(OC(F)F)cc1)NCC1CCCO1 (stereo not drawn),10.6%
14,CCOC(=O)N1N=C(c2ccccc2)CC1(O)C(C)(F)F (stereo not drawn),13.5%
15,CC(=O)c1cccc(NC(=O)Nc2cccnc2)c1,3.96%
16,CCOC(=O)C1CCCN(C(=O)c2ccc3c(=O)n(CCOC)c(=S)[nH]c3c2)C1 (stereo not drawn),-4.53%
17,C=CCn1c(CSc2ccc(C)cc2)n[nH]c1=S,15%
18,CSc1ccc(S(=O)(=O)N2CCC(C(=O)N3CCOCC3)CC2)cc1,4.71%
19,COC(=O)C1CCN(C(=O)C23CCC(C)(C(=O)O2)C3(C)C)CC1 (stereo not drawn),8.81%

row,SMILES,"hERG current change (%, negative = inhibition) at 1uM"
1,CCN1CCN(C(=O)CS(=O)(=O)Cc2nc(-c3ccc(C)cc3)oc2C)CC1,11.4%
2,CC(OC(=O)CN1C(=O)NC2(CCCC2)C1=O)C(=O)c1ccccc1 (stereo not drawn),14%
3,CCSc1ccc2nnc(-c3cccc(F)c3)n2n1,2.2%
4,CSc1nc(S(=O)(=O)c2ccccc2)c(Cl)s1,17%
5,CC(=O)Nc1ccc(NC(=O)C(C)OC(=O)CCC2CCCCC2)cc1 (stereo not drawn),0.461%
6,O/N=C1\CC(O)Cc2nonc21 (stereo not drawn),12.6%
7,CN(C)C1=NCCN1CCc1cccc(F)c1,0.142%
8,CN1CCN(C(=O)CCC(=O)O)CC1,10.9%
9,Cc1cnc(NC(=O)Nc2ccc(Cl)cc2)s1,5.17%
10,COc1ccc(OC)c(NC(=S)NN2CCN(C)CC2)c1,5.8%
11,CCOC(=O)CSc1nnc2n(C3CCCCC3)c(=O)c3c4c(sc3n12)CCCC4,12%
12,O=c1oc(-c2ccc(Br)cc2)nc2ccccc12,16.3%
13,CC1CC(C)(C)CC2(C1)NC(=O)N(CC(=O)Nc1ccc(N3CCCCC3)cc1)C2=O (stereo not drawn),19.4%
14,COc1ccc(S(=O)(=O)N2CCC(O)(c3ccc(Cl)cc3)CC2)cc1,20.2%
15,CCOc1ccc(OCCC(=O)OCC(=O)c2c(N)n(C)c(=O)n(C)c2=O)cc1,7.01%
16,COc1ccc(C(=O)NN)cc1COc1ccc(Br)cc1,-9.74%
17,O=C(CCNS(=O)(=O)c1ccccc1C(F)(F)F)NNC(=O)C1COc2ccccc2O1 (stereo not drawn),10%
18,O=C(c1ccccc1)N1CCN(C(=S)NCc2ccc3c(c2)OCO3)CC1,-12.1%
19,CCN1CCN(S(=O)(=O)c2ccc(Cl)c(C(=O)Nc3ccc(C(=O)N(CC)CC)cc3)c2)CC1,6.61%

row,SMILES,"hERG current change (%, negative = inhibition) at 1uM"
1,COC(=O)N/N=C\c1ccc(-c2cc(Cl)c(Cl)cc2Cl)o1,-0.917%
2,Cc1nn(-c2ccccc2)nc1CNC(=O)CC(C)(C)C,12.3%
3,CC(C)C(C)NC(=O)CN1C(=O)NC2(CCCCCC2)C1=O (stereo not drawn),8.23%
4,Cc1cccc(OC(C)C(=O)N2CCN(Cc3ccc4c(c3)OCO4)CC2)c1 (stereo not drawn),-8.4%
5,CCc1ccc(NC(=S)Nc2cc(C(=O)O)ccc2N2CC3CC(C2)c2cccc(=O)n2C3)cc1 (stereo not drawn),8.87%
6,Cc1ccc(-n2c(SCC(N)=O)nc3c(c2=O)C2(CCCC2)Cc2ccccc2-3)cc1,7.56%
7,Cc1cc(/C=N/NC(=O)Cn2c3ccccc3c(=O)c3ccccc32)c(C)n1-c1ccccc1,1.41%
8,COc1cc(C2C3CN(C)CC=C3C(C#N)=C(N)C2(C#N)C#N)ccc1OC(C)C (stereo not drawn),5.13%
9,CC(C)(C)c1nc(NCCO)c2nnn(Cc3ccccc3)c2n1,4.82%
10,Cc1ccc(C)c(S(=O)(=O)Nc2nc(C)c(C(=O)Nc3ccccc3)s2)c1,8.01%
11,O=C(O)c1cccc(-n2cccc2/C=C/[N+](=O)[O-])c1,9.75%
12,CCn1nc(C(=O)Nc2ccc(S(=O)(=O)Nc3nccs3)cc2)c2ccccc2c1=O,8.22%
13,COc1ccc(/C=N/N2CCOCC2)cc1COc1ccc(F)cc1,2.44%
14,CN(C(=O)COC(=O)Cn1c(C(F)(F)F)nc2ccccc21)c1c(N)n(Cc2ccccc2)c(=O)[nH]c1=O,9.05%
15,O=c1c2ccccc2ncn1Cc1ccc(Cl)cc1,-8.09%
16,CCC1C(=O)N=C(SCC(=O)NC2CCCCC2)NC1=O (stereo not drawn),16.8%
17,CCN(CC)CCNC(=O)C1(O)c2cc(Br)ccc2NC(=O)N1c1ccccc1 (stereo not drawn),7.76%
18,CCC1(c2ccc(C)cc2)NC(=O)N(CC(=O)Nc2cccc(S(=O)(=O)N3CCCC3)c2)C1=O (stereo not drawn),9.79%
19,Cc1cc(NC(=O)CSc2nc3cc4c(cc3c(=O)n2CCc2ccccc2)OCO4)no1,5.94%
